Laboratory results from ChEMBL document CHEMBL4888484, “Replenishing the malaria drug discovery pipeline: Screening and hit evaluation of the MMV Hit Generation Library 1 (HGL1) against asexual blood stage Plasmodium falciparum ,using a nano luciferase reporter read-out” (2022).
Among all 150,000 compounds or so, about 540 (0.36%) showed an effect of 50% or more. Some of the results follow.

System: Plasmodium falciparum
Test: Primary screen in NF54 nanoGlo assay, in single point, at 2uM, 72h; a lower Z score goes with more inhibition
Format: functional, Erythrocyte
Details: timepoint 72 hour

SMILES	% Inhibition [%]	Z score
CS(=O)(=O)N[C@@H]1CC[C@H]2CCOc3ccccc3C(=O)N3CCN(Cc4ccc(F)c(F)c4)C[C@H]3C(=O)NC[C@H]1O2	4	-0.66
Cc1ccc2[nH]c(=O)c(CN(C(=O)c3ccncc3)C3CCCCC3)cc2c1	-19	1.98
Cc1cc(C(=O)NC2(CN3CCOCC3)CCCC2)cc(C)n1	-6	0.7
Cc1cnn(CC(C)NC(C)C(=O)NCC2CCCO2)c1 (stereo not given)	-5	0.63
CO[C@H]1CCC[C@@H]1NC(=O)N1CC(F)C1	2	-0.38
Cc1cc(O)n2nc(CC(=O)N3CC[C@@](O)(C4CCOCC4)[C@H](C)C3)nc2n1	-12	1.16
COc1ccc(-c2nn(-c3ccccc3)c(N)c2NC(=O)NCc2ccccn2)cc1	9	-1.34
CCCC(=O)NCc1ccc2c(c1)CCN2C(=O)c1ccncc1	-8	0.74
CC1CN(Cc2ccccc2)CC1NC(=O)Cc1ccccc1O (stereo not given)	-2	0.3
COc1cc2c(cc1OC)CN(C(=O)Cn1nnnc1C1CCCC1)CC2	-3	0.65
COc1cc(F)c(CN2CC[C@@]3(CCCNC3)C2)c(F)c1	-2	0.28
CCc1cccc(Nc2nc3ccncc3n(C(C)C)c2=O)c1	1	-0.13
Cc1cccc(C(NC(=O)[C@@H]2CCCO2)C(F)(F)F)c1 (stereo not given in full)	-6	0.81
CNC(=O)c1cccnc1N1CC[C@](C)(COC)C1	-1	0.18
Cc1cc(NC(=O)N2CCC=C(c3cn(C(C)C)nn3)CC2)n(C)n1	-15	2.7
O=C(NCc1cccc(C(F)(F)F)n1)c1[nH]ccc1C1CC1	-4	0.54
C[C@@H]1CN(CC2CCCCO2)CC(C(N)=O)O1 (stereo not given in full)	-13	1.98
CC[C@](C)(NC(=O)c1cc(C2CC2)n(C)n1)c1nccs1	-3	0.58
COCN1C(=O)CCc2cc(NCc3ccnn3C)ccc21	-6	0.85
Cc1ccc(C(=O)N2CCNC(=O)[C@@H]2c2ccc(F)cc2)cc1OCCN	-17	2.25
Cn1nccc1CNC(=O)C1CC1c1ccc(Cl)cc1Cl (stereo not given)	-3	0.46
COCCC(=O)N1C[C@@H](COc2cccnc2)[C@H](c2ccccn2)C1	-6	1.05

SMILES	% Inhibition [%]	Z score
C[C@H]1CN(C(=O)Cc2ccon2)c2cc(F)c(F)cc2O1	-8	0.85
C[C@H](Nc1cccc2c1CCO2)c1cccnc1	37	-2.09
CC(O)CNC(=O)CCC1CCCO1 (stereo not given)	-2	0.42
O=C(Nc1ccc2ncnn2c1)N1C[C@H]2CCC[C@H]2C1	-1	0.18
Cc1ccc(N2CCN(C(=O)c3ccc4c(c3)CC(=O)N4C)CC2)cc1	-5	0.57
Cc1cccc(OCC(=O)c2ccc3c(c2)N(Cc2nc(C(=O)N4CCC(C)CC4)cs2)C(=O)CO3)c1	-14	1.75
O=C(Cn1ncc(N2CCNCC2)cc1=O)N(Cc1ccccc1)C1CCCC1	-12	1.58
c1ccc(CNc2cc(-n3ccnc3)ncn2)cc1	-3	0.34
CC(=O)Nc1ccc(CN[C@@H]2CO[C@H](CNC(=O)c3ccccc3)[C@H]2O)cc1	-18	2.26
c1cn2c(n1)CN(Cc1nnnn1C1CC1)CC2	-3	0.46
C=C(C)C[C@H](C)C(=O)N(CC)c1ccc(N2CCOCC2)cc1	-11	0.94
Cn1nc(O)c2c1CN(C[C@H]1COc3ccccc3O1)CC2	-8	1.02
CC(C)Oc1ccc(CN2CCn3c(nn(CC4CC4)c3=O)C2)cc1	-19	3.29
CC1(C)OC2C(CO)OC(n3cnc4c(NC(=O)c5ccccc5)ncnc43)C2O1 (stereo not given)	-33	3.82
O=C([C@@H]1Cc2ccccc21)N1CCOC2(CCS(=O)(=O)CC2)C1	-14	1.82
CC(C)n1cnnc1CN1CCN(CC2CC2)[C@@H]2CS(=O)(=O)C[C@@H]21	5	-0.76
COc1ccccc1N1CCN(CC(=O)N2CCC[C@H](Oc3cc(C#N)ccn3)C2)C1=O	-12	1.86
Cc1nc(NC2CCCCC2)sc1C(=O)Nc1ccc(F)cc1F	-7	0.94
Cc1cc(C(=O)N2CCC(c3cc(N)on3)CC2)c(C)o1	-12	1.89
CCN1CCN(C(=O)c2nc(-c3ccccc3)nc3c2OCCO3)CC1	-3	0.4
COc1ccc2c(c1)OC(C)(C)CN(Cc1ncccc1C(=O)O)C2	2	-0.24
COc1c(F)ccc(-c2cn(Cc3c(C)noc3C)nn2)c1F	-11	1.65

SMILES	% Inhibition [%]	Z score
COCCN1CC[C@H](C(=O)Nc2ccc(N3CCCC3)c3ncccc23)C1	-15	1.74
Cc1cnc(N2C[C@@H]3OC(=O)N(CCCN4CCOCC4)[C@@H]3C2)nc1N	-14	2.76
COCCNc1nc(-c2cccc(Cl)c2)c2c(N)n(-c3cccc(C)c3)nc2n1	-5	0.69
CCc1c(C)nn(CCNc2ncnc3c2c(C)nn3C)c1C	-12	2.4
CCN(C[C@H]1CCOC1)C(=O)Cn1c(=O)n(C)c2ccccc21	8	-1.29
CCc1nnsc1C(=O)N1CCc2[nH]nc(-c3cccc(OC)c3)c2C1	-15	1.42
CC(C)C[C@H]1C(=O)NC(c2cc3n(n2)CCC3)N1C (stereo not given in full)	-13	2.01
CCC(C)N(CC1CN(C(=O)c2cccs2)CCO1)C(=O)c1ccccc1OC (stereo not given)	-4	0.63
CC(CN1CCN(c2ccccc2)CC1)NC(=O)C1CCCCN1C (stereo not given)	8	-1.06
CCCN1CCN(c2ncc(C#N)c(N)n2)CC1=O	-16	1.51
CC(C)Cc1noc([C@@H](C)NC(=O)OC(C)(C)C)n1	-6	0.58
NC(=O)c1c(Cl)cccc1NCc1noc(Cc2ccccc2)n1	33	-4.41
Cc1cc(C(=O)N2CC[C@@H](N)C2)c2ccc(Br)cc2n1	-1	0.12
Cc1cnc(C(=O)NC[C@H]2Cn3cccc3C(=O)N2C)cn1	-9	1.77
Nc1nc(-c2cccnc2)nc(-c2cccnc2)n1	-17	2.13
Cc1cscc1NC(=O)NCCc1cn[nH]c1	0	0.05
Cc1scc(C(=O)N[C@@H](C(=O)O)C(C)C)c1C	-9	1.16
CC(C)CCn1c(=O)c2sccc2n(CC(=O)NC[C@H]2CCCO2)c1=O	27	-3.09
CC(NC(=O)Nc1ccccc1)C(c1cccs1)N1CCN(c2ccccc2)CC1 (stereo not given)	-5	0.83
Cc1cc(C(=O)Nc2ccc(CCN3CCC(O)CC3)cc2)no1	-4	0.77
CC1CN(C(=O)c2[nH]nc(C3CC3)c2Br)CC(C)O1 (stereo not given)	15	-1.71
COCCCC(C)C(=O)N1CCCC(N2CCCCC2)C1 (stereo not given)	-11	1.41

SMILES	% Inhibition [%]	Z score
CC1CC(C(=O)N2CCc3cc(Cl)c(Cl)cc3C2C)CCO1 (stereo not given)	-8	0.96
O=C(NCc1ccc(F)cc1)N1CCC2(CC1)[C@H](O)C[C@@H]2O	-5	1.06
Cn1ccc2cc([C@@H](O)CNC(=O)NC3CCCC3)ccc21	-18	2.36
Oc1ccc([C@@H](O)Cn2cc(-c3cc(CN4CCCC4)cs3)nn2)cc1	-22	2.81
CCn1cc(C(=O)NC2CCN(c3ccc(Cl)cc3)CC2)nn1	-4	0.57
CC(=O)Nc1cccc(Nc2nc(C)nc3c2CCC3)c1	10	-1.79
CC(C)CN(C)C(=O)C[C@H]1C(=O)NCCN1C	-9	1.69
COc1c(F)cc(CN2C[C@@H](CN3CCCCC3)[C@@H](CO)C2)cc1Cl	-9	1.4
COc1ccc(OC)c(S(=O)(=O)N2CCCCCCC2)c1	-15	1.93
CCCc1ccc(-c2nccn2CCN2CCCC2=O)o1	0	0
CC(=O)N[C@H]1C[C@H]2CN(C(=O)c3sc(C)nc3C)[C@@H](CC(C)C)C(=O)N2C1	-6	0.8
O=C(O)c1cccc(-c2nc(-c3cscn3)cs2)c1	-13	1.37
Cc1nn(C(C)(C)C)c2nc(C3CC3)cc(C(=O)N(C)c3ccccc3)c12	55	-8.04
CCOc1ccc(C(=O)NCc2nc(COC)no2)o1	3	-0.57
CN(C)C(=O)c1cccc(NC2CCS(=O)(=O)CC2)n1	-7	0.85
NC(=O)N1CCCC(C(=O)N2CCCC2c2ccc(F)c(F)c2)C1 (stereo not given)	0	0.02
Cc1ccc(CNC(=O)[C@@H](C)C2CCN(C(=O)c3cc4ccccc4[nH]3)CC2)o1	-11	1.04
Cc1ccccc1S(=O)(=O)N1CCC[C@@]2(C1)Nc1cccnc1N=C2NC1CCCC1	32	-3.66
c1cc2c(cc1-c1nnc3n1CCOC3)OCCO2	2	-0.22
